# Test results: the supplement of paper PMC7726561
# In all, about 1,400 sequences were measured (“thermal melting temperature (Tm) of peptide-HLA complex”: median about 60, lowest 2% from about 45 on). Some of the results follow.
# Target: HLA-B*07:02
# Assay: thermal melting temperature (Tm) of peptide-HLA complex; higher = more thermostable pHLA complex
# Conditions: C1R-B*07:02
# 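Also: cell lysates heated 10 min at 37–73 °C, remaining pHLA pulled down with pan-class I antibody, peptides quantified by DIA-MS versus 37 °C, Tm where half the complex is lost.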
row,Sequence,thermal melting temperature [°C]
1,VPALPKSLISL,64.4
2,APDKHHITPLL,43.7
3,IVDGNHRLTL,58.4
4,APAERQIDL,60.1
5,SPTLPAARSSL,56.9
6,RPFERTITM,56.5
7,QPILRFLQL,60.8
8,RPIAAGDISTF,56.6
9,RPPTLQPPTL,52.1
10,RPTGSVSSTL,53.4
11,KPYAHILSV,55.5
12,SPMSDVVSREL,62.1
13,SPRGFPLGLSA,62.3
14,TPIQGTSEL,59.8
15,RPYPQVQML,60.9
16,LPRGSIPRSL,62.3
17,NPRDLPLMAL,58.4
18,APILRARLLPL,47.3

row,Sequence,thermal melting temperature [°C]
1,SPRSVGPFAL,62.8
2,RPEEGFVEL,54.5
3,QPAPTPLKM,56.8
4,RPYSPSQYAL,56
5,SPNQSLRLGL,61
6,APRAPRALAAA,56.9
7,PAEGRVAL,56.8
8,NPHGARLSL,57.6
9,APFTGSSLEL,60
10,SPRPVALAL,63.1
11,NPRQPLPASGL,58.3
12,QPRIFGGVL,62.6
13,TPHYVTQVI,59.7
14,RPFNSWEAL,61.5
15,RPISVIGGVSL,62.3
16,APIAKVGVL,62.1
17,LPHGGEGWQQL,58.4
18,LPHNRLVSL,60.6
